Details: LD50(mg/kg)×70 kg/2 L, LD50 oral in rats

| Structure (SMILES) | TDC (Target Detection Concentration) |
| --- | --- |
| Oc1c(Cl)cccc1Cl [2,6-Dichlorophenol] | 6,550 mg/l |
| CNC(=S)[S-].[Na+] [Metham Sodium] | 28,700 mg/l |
| Oc1cc(Cl)c(Cl)cc1Cl [2,4,5-Trichlorophenol] | 2,960 mg/l |
| C[n+]1ccc(-c2cc[n+](C)cc2)cc1 [Paraquat] | 5,250 mg/l |

Source: patent US20080044844A1 (priority 2004, published 2008)
